{"source": "the BET-seq Pho4 binding data (Le et al. 2018)", "note": "The other results are listed elsewhere or left out. These are noisy estimates, calculated here from bound and input reads."}
{"target": "T1, Pho4 (S. cerevisiae) (UniProt P07270)", "T1 sequence": "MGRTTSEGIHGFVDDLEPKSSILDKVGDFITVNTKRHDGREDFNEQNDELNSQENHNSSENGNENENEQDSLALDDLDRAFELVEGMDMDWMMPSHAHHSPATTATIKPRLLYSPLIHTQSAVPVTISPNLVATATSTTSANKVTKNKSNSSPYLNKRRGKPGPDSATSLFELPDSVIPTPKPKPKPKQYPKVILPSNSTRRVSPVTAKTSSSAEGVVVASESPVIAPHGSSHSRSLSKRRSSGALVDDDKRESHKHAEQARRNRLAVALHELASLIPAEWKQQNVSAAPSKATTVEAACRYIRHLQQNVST", "assay": "relative binding free energy (BET-seq); higher = weaker binding", "conditions": "reference: library average", "units": {"relative binding free energy": "kcal/mol"}}
{"sequence": "TAAGGCACGTGGTAGA", "relative binding free energy": -0.15}
{"sequence": "TTAGTCACGTGTGGGC", "relative binding free energy": 0.25}
{"sequence": "TTCAGCACGTGTGTTG", "relative binding free energy": -0.08}
{"sequence": "TCGTGCACGTGTTAGT", "relative binding free energy": -0.11}
{"sequence": "AGGCTCACGTGGTTCG", "relative binding free energy": 0.29}
{"sequence": "GGGGACACGTGTGATC", "relative binding free energy": 0.15}
{"sequence": "GTGCTCACGTGGTGTG", "relative binding free energy": 0.16}
{"sequence": "AGTATCACGTGTCTGT", "relative binding free energy": 0.17}
{"sequence": "GTTGTCACGTGCTTTC", "relative binding free energy": 0.15}
{"sequence": "CGGGTCACGTGATGGA", "relative binding free energy": 0.17}
{"sequence": "TATGTCACGTGGTATT", "relative binding free energy": 0.02}
{"sequence": "GCTTGCACGTGAAGTG", "relative binding free energy": 0.26}
{"sequence": "ATTTACACGTGCTTTG", "relative binding free energy": -0.07}
{"sequence": "ACGAGCACGTGGGGGC", "relative binding free energy": -0.16}
{"sequence": "TATTTCACGTGTTTTG", "relative binding free energy": 0.3}
{"sequence": "TTCGCCACGTGAGGGT", "relative binding free energy": 0.11}
{"sequence": "GAGTTCACGTGGAGAT", "relative binding free energy": 0.44}
{"sequence": "GTTTTCACGTGCGCTG", "relative binding free energy": 0.39}
{"sequence": "GTATGCACGTGACGGT", "relative binding free energy": 0.09}
{"sequence": "ATAGGCACGTGGTGCG", "relative binding free energy": -0.3}
{"sequence": "TTGGTCACGTGGTTGG", "relative binding free energy": 0.08}
{"sequence": "TTACCCACGTGGGGGG", "relative binding free energy": -0.34}
{"sequence": "CGAATCACGTGAGTGT", "relative binding free energy": 0.39}
{"sequence": "CTGAGCACGTGTGAGG", "relative binding free energy": -0.01}
{"sequence": "TAGCGCACGTGTCAGG", "relative binding free energy": -0.05}
{"sequence": "TTGTACACGTGTCTGA", "relative binding free energy": 0}
{"sequence": "TTATACACGTGAGATA", "relative binding free energy": 0.27}
{"sequence": "AGGTTCACGTGAGTAA", "relative binding free energy": 0.26}
{"sequence": "TTTATCACGTGGATGG", "relative binding free energy": 0.06}
{"sequence": "ATTATCACGTGCGTGT", "relative binding free energy": 0.09}
{"sequence": "TTTGCCACGTGAGGGG", "relative binding free energy": 0.1}
{"sequence": "GCCGTCACGTGGTATT", "relative binding free energy": 0.17}
{"sequence": "GGTCCCACGTGGGTTG", "relative binding free energy": -0.19}
{"sequence": "ATTTTCACGTGCTTTA", "relative binding free energy": 0.23}
{"sequence": "TAGGGCACGTGCCGGG", "relative binding free energy": -0.2}
{"sequence": "GAATGCACGTGAGTAT", "relative binding free energy": 0.3}
{"sequence": "CTTCGCACGTGGTGTG", "relative binding free energy": -0.2}
{"sequence": "GTGGGCACGTGGCAGG", "relative binding free energy": -0.19}
{"sequence": "ATATTCACGTGTTGTC", "relative binding free energy": 0.28}
{"sequence": "GGTCGCACGTGATTAG", "relative binding free energy": 0.08}
{"sequence": "AGATACACGTGGATGG", "relative binding free energy": -0.13}
{"sequence": "GGATTCACGTGGTGTG", "relative binding free energy": 0.28}
{"sequence": "GGGCTCACGTGTGTTT", "relative binding free energy": 0.34}
{"sequence": "AGATGCACGTGCGTTG", "relative binding free energy": 0.03}
{"sequence": "TAGGGCACGTGGTGTT", "relative binding free energy": -0.19}
{"sequence": "TGTTGCACGTGCGTAT", "relative binding free energy": -0.07}
{"sequence": "TAGTTCACGTGCATTG", "relative binding free energy": 0.15}
{"sequence": "GGAGCCACGTGGTATG", "relative binding free energy": -0.18}
{"sequence": "AGTTTCACGTGATGAG", "relative binding free energy": 0.23}
{"sequence": "ATTGCCACGTGGTGTA", "relative binding free energy": -0.32}
{"sequence": "ATTGTCACGTGATGGT", "relative binding free energy": 0.14}
{"sequence": "TCGGGCACGTGCGTGG", "relative binding free energy": -0.19}
{"sequence": "GCTTTCACGTGGTTGA", "relative binding free energy": 0.15}
{"sequence": "TGAGTCACGTGATTTT", "relative binding free energy": 0.36}
{"sequence": "GTTGTCACGTGGATTT", "relative binding free energy": 0.16}
{"sequence": "AGGGTCACGTGTCTGA", "relative binding free energy": 0.04}
{"sequence": "TGGTGCACGTGTACAA", "relative binding free energy": 0.1}
{"sequence": "CTTGTCACGTGGGTTA", "relative binding free energy": -0.07}
{"sequence": "TGTAACACGTGAGGTT", "relative binding free energy": 0.25}
{"sequence": "AGATGCACGTGGTTAA", "relative binding free energy": -0.29}
{"sequence": "TGGCGCACGTGAAGTG", "relative binding free energy": 0.12}
{"sequence": "CGGCACACGTGGGGCG", "relative binding free energy": -0.06}
{"sequence": "GATGGCACGTGGCAGT", "relative binding free energy": -0.16}
